This assay addresses EGFR on U87MG.de2-7 cells (UniProt P00533). Kind of assay: flow cytometry on U87MG.de2-7 cells, Alexa Fluor 488 anti-human IgG Fc.

One may read the EC50 as the concentration that produces a half-maximal response. The low end stands for greater potency, the high end for weaker potency.

B1: DB001 Fab-body (bispecific antibody, human IgG1, kappa)
light: DIQMTQSPSSMSVSVGDRVTITCHSSQDINSNIGWLQQKPGKSFKGLIYHGTNLDDGVPSRFSGSGSGTDYTLTISSLQPEDFATYYCVQYAQFPWTFGGGTKLEIKTVAAPSVFIFPPDAQVTQSPSSLSASVGDRVTITCRSSTGAVTTSNYANWVQEKPGKLFKGLIGGTNKRAPGVPSRFSGSGSGTDATLTISSLQPEDFATYFCALWYSNLWVFGGGTKVEIKRTVAAPSVFIFPPSDEQLKSGTASVVCLLNNFYPREAKVQWKVDNALQSGNSQESVTEQDSKDSTYSLSSTLTLSKADYEKHKVYACEVTHQGLSSPVTKSFNRGECGGSGG[human IgG1 Fc with changes omitted here]
heavy: QVQLQESGPGLVKPSQTLSLTCTVSGYSISSDFAWNWIRQPPGKGLEWMGYISYSGNTRYQPSLKSRITISRDTSKNQFFLKLNSVTAADTATYYCVTAGRGFPYWGQGTLVTVSSASTKGPEVQLVESGGGLVQPGGSLRLSCAASGFTFSTYAMNWVRQAPGKGLEWVGRIRSKYNNYATYYADSVKDRFTISRDDSKNTAYLQMNSLRAEDTAVYYCTRHGNFGNSYVSWFAYWGQGTLVTVSSASTKGPSVFPLAPSSKSTSGGTAALGCLVKDYFPEPVTVSWNSGALTSGVHTFPAVLQSSGLYSLSSVVTVPSSSLGTQTYICNVNHKPSNTKVDKKV[human IgG1 Fc with changes omitted here]
With B1, the EC50 came to 15 nM. This counts as double-digit nanomolar.

The values are drawn from patent publication US20140221622A1.
